PubChem BioAssay (NCATS)
Values joined by “and” are separate entries in the source; they are usually repeats but may differ in a detail not shown here. Identical values can stand only once. The shares of active, inactive and inconclusive entries below differ from those in the screen. Potencies beside an inconclusive call are fits to weak or partial responses and may not hold up. Active and inactive are the calls of the source. The call rests on the fitted dose curve; in most records, active means well fitted inhibition curve with a large enough effect; inconclusive means small, poorly fitted or top-dose-only effect; inactive means flat fitted curve, though single readings scatter.

assay: qHTS for Inhibitors of Plasmodium falciparum (HB3) proliferation (AID 504318); further: nearly all actives have a fitted effect of over 60% in size; settings: P. falciparum HB3 in erythrocytes, SYBR Green DNA, 72 h; series mostly up to 7.21 µM
Summary of the method: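 Erythrocytes infected with P. falciparum line (0.3% parasitemia, 2.5% hematocrit final) incubated with compounds 72 h at 37 °C, 5% CO2; SYBR Green lysis buffer added, fluorescence read next day. Normalized to 0.29 uM artemisinin and DMSO.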
Potency means the concentration at half of the fitted maximal effect; tags describe the fitted curve by direction and shape.

SMILES | Potency
C#CCCOC(=O)N1C2=NC(C(=O)OC)=C(C(=O)OC)[C@@H]3N(Cc4ccccc4)c4ccccc4[C@]23C[C@H]1C(=O)OC | inconclusive: 2.13 µM [inhibitor, single point]
CCN1C(=O)NC(c2ccc(Br)cc2)C(C(C)=O)=C1C (stereo not given) | inconclusive: 4.15 µM [inhibitor, single point]
CCCCC1=CC2=C(c3ccco3)C(=O)C(C)(OC(=O)c3ccc(OC)cc3)C(=O)C2=CN1C1CCCCC1 (stereo not given) | inconclusive: 3.38 µM [inhibitor, single point] and inconclusive: 675 nM [inhibitor, partial curve, poor fit]
C=CCC12OC3(OC)CC1[C@H](C)[C@@H](c1ccccc1)C2[C@]3(O)CC=C (stereo not given in full) | inactive
CC[C@@H](C)CN1C(=O)N[C@@H](CCc2ccccc2)C(C(C)=O)=C1C | inactive
